Measured values from patent publication US20250262222A1, “HETEROCYCLIC COMPOUNDS, COMPOSITIONS THEREOF, AND METHODS OF TREATMENT THEREWITH” (BeiGene Switzerland GmbH, priority 2022, published 2025).
pIC50: −log10 of the molar value.

Experiments:
[1] = molecular target: GST-tagged GDP-loaded KRAS G12D (amino acids 1-188) (Homo sapiens, UniProt P01116, G12D); test: biochemical
[2] = molecular target: GST-tagged GDP-loaded WT KRAS (amino acids 1-188) (Homo sapiens, UniProt P01116); test: biochemical

SMILES	pIC50 [1]	pIC50 [2]
Nc1cc(Cl)c(C(F)(F)F)c(-c2nc3c4c(nc(OCC56COC(CF)(C5)C6)nc4c2F)N2C[C@H]4CC[C@H](N4)[C@H]2CCO3)c1 [Example 50, 3-chloro-5-((6aR,7S,10R)-1-fluoro-13-((1-(fluoromethyl)-2-oxabicyclo[2.1.1]hexan-4-yl)methoxy)-5,6,6a,7,8,9,10,11-octahydro-4-oxa-3,11a,12,14,15-pentaaza-7,10-methanocyclohepta[4,5]cyclo-octa[1,2,3-de]naphthalen-2-yl)-4-(trifluoromethyl)aniline]	9.47	6.80
C#Cc1c(F)ccc2cc(O)cc(-c3nc4c5c(nc(OCC67COC(C(F)F)(C6)C7)nc5c3F)N3C[C@H]5CC[C@H](N5)[C@H]3CCO4)c12 [Example 52, 4-((6aR,7S,10R)-13-((1-(difluoromethyl)-2-oxabicyclo[2.1.1]hexan-4-yl)methoxy)-1-fluoro-5,6,6a,7,8,9,10,11-octahydro-4-oxa-3,11a,12,14,15-pentaaza-7,10-methanocyclohepta[4,5]cyclo-octa[1,2,3-de]naphthalen-2-yl)-5-ethynyl-6-fluoronaphthalen-2-ol]	9.66	7.89
Nc1cc(Cl)c(C(F)(F)F)c(-c2nc3c4c(nc(OCC5(C(F)F)COC5)nc4c2F)N2C[C@H]4CC[C@H](N4)[C@H]2CCO3)c1 [Example 32, 3-chloro-5-((6aR,7S,10R)-13-((3-(difluoromethyl)oxetan-3-yl)methoxy)-1-fluoro-5,6,6a,7,8,9,10,11-octahydro-4-oxa-3,11a,12,14,15-pentaaza-7,10-methanocyclohepta[4,5]cyclo-octa[1,2,3-de]naphthalen-2-yl)-4-(trifluoromethyl)aniline]	9.64	6.94
Nc1cc(Cl)c(C(F)(F)F)c(-c2nc3c4c(nc(OCC56CCC(CC5)OC6)nc4c2F)N2C[C@H]4CC[C@H](N4)[C@H]2CCO3)c1 [Example 40, 3-((6aR,7S,10R)-13-((2-oxabicyclo[2.2.2]octan-4-yl)methoxy)-1-fluoro-5,6,6a,7,8,9,10,11-octahydro-4-oxa-3,11a,12,14,15-pentaaza-7,10-methanocyclohepta[4,5]cyclo-octa[1,2,3-de]naphthalen-2-yl)-5-chloro-4-(trifluoromethyl)aniline]	8.96	6.37
CC1(COc2nc3c4c(nc(-c5cc(N)cc(Cl)c5C(F)(F)F)c(F)c4n2)OCC[C@@H]2[C@@H]4CC[C@H](CN32)N4)CCOCC1 [Example 65, 3-chloro-5-((6aR,7S,10R)-1-fluoro-13-((4-methyltetrahydro-2H-pyran-4-yl)methoxy)-5,6,6a,7,8,9,10,11-octahydro-4-oxa-3,11a,12,14,15-pentaaza-7,10-methanocyclohepta[4,5]cyclo-octa[1,2,3-de]naphthalen-2-yl)-4-(trifluoromethyl)aniline]	8.70	6.16
CC1(COc2nc3c4c(nc(-c5cc(N)cc(Cl)c5C(F)(F)F)c(F)c4n2)OCC[C@@H]2[C@@H]4CC[C@H](CN32)N4)COC1 [Example 66, 3-chloro-5-((6aR,7S,10R)-1-fluoro-13-((3-methyloxetan-3-yl)methoxy)-5,6,6a,7,8,9,10,11-octahydro-4-oxa-3,11a,12,14,15-pentaaza-7,10-methanocyclohepta[4,5]cyclo-octa[1,2,3-de]naphthalen-2-yl)-4-(trifluoromethyl)aniline]	9.16	6.69
CC12COCC(COc3nc4c5c(nc(-c6cc(N)cc(Cl)c6C(F)(F)F)c(F)c5n3)OCC[C@@H]3[C@@H]5CC[C@H](CN43)N5)(C1)C2 [Example 48, 3-chloro-5-((6aR,7S,10R)-1-fluoro-13-((5-methyl-3-oxabicyclo[3.1.1]heptan-1-yl)methoxy)-5,6,6a,7,8,9,10,11-octahydro-4-oxa-3,11a,12,14,15-pentaaza-7,10-methanocyclohepta[4,5]cyclo-octa[1,2,3-de]naphthalen-2-yl)-4-(trifluoromethyl)aniline]	8.60	6.19
Nc1cc(Cl)c(C(F)(F)F)c(-c2nc3c4c(nc(OCC56COC(C(F)(F)F)(C5)C6)nc4c2F)N2C[C@H]4CC[C@H](N4)[C@H]2CCO3)c1 [Example 53, 3-chloro-5-((6aR,7S,10R)-1-fluoro-13-((1-(trifluoromethyl)-2-oxabicyclo[2.1.1]hexan-4-yl)methoxy)-5,6,6a,7,8,9,10,11-octahydro-4-oxa-3,11a,12,14,15-pentaaza-7,10-methanocyclohepta[4,5]cyclo-octa[1,2,3-de]naphthalen-2-yl)-4-(trifluoromethyl)aniline]	9.09	6.59
Cc1cc(N)cc(-c2nc3c4c(nc(OCC56COC(C(F)F)(C5)C6)nc4c2F)N2C[C@H]4CC[C@H](N4)[C@H]2CCO3)c1C(F)(F)F [Example 29, 3-((6aR,7S,10R)-13-((1-(difluoromethyl)-2-oxabicyclo[2.1.1]hexan-4-yl)methoxy)-1-fluoro-5,6,6a,7,8,9,10,11-octahydro-4-oxa-3,11a,12,14,15-pentaaza-7,10-methanocyclohepta[4,5]cyclo-octa[1,2,3-de]naphthalen-2-yl)-5-methyl-4-(trifluoromethyl)aniline]	9.13	6.50
C#Cc1c(F)ccc2cc(O)cc(-c3nc4c5c(nc(OC[C@@]67CCCN6C[C@H](F)C7)nc5c3F)N3CC5CCC(N5)C3CO4)c12 (stereo partly drawn) [Example 11, 5-ethynyl-6-fluoro-4-(1-fluoro-12-(((2R,7aS)-2-fluorotetrahydro-1H-pyrrolizin-7a(5H)-yl)methoxy)-5a,6,7,8,9,10-hexahydro-5H-4-oxa-3,10a,11,13,14-pentaaza-6,9-methanonaphtho[1,8-ab]heptalen-2-yl)naphthalen-2-ol]	9.80	9.02
Nc1cc(Cl)c(C(F)(F)F)c(-c2nc3c4c(nc(OCC56COC(C(F)F)(C5)C6)nc4c2F)N2C[C@H]4CC[C@H](N4)[C@H]2CCO3)c1 [Example 35, 3-chloro-5-((6aR,7S,10R)-13-((1-(difluoromethyl)-2-oxabicyclo[2.1.1]hexan-4-yl)methoxy)-1-fluoro-5,6,6a,7,8,9,10,11-octahydro-4-oxa-3,11a,12,14,15-pentaaza-7,10-methanocyclohepta[4,5]cyclo-octa[1,2,3-de]naphthalen-2-yl)-4-(trifluoromethyl)aniline]	9.60	7.00
Nc1cc(Cl)c(C(F)(F)F)c(-c2nc3c4c(nc(OCC56COCC(C5)C6)nc4c2F)N2C[C@H]4CC[C@H](N4)[C@H]2CCO3)c1 [Example 67, 3-((6aR,7S,10R)-13-((3-oxabicyclo[3.1.1]heptan-1-yl)methoxy)-1-fluoro-5,6,6a,7,8,9,10,11-octahydro-4-oxa-3,11a,12,14,15-pentaaza-7,10-methanocyclohepta[4,5]cyclo-octa[1,2,3-de]naphthalen-2-yl)-5-chloro-4-(trifluoromethyl)aniline]	8.89	6.56
Cc1c(F)c(N)cc(-c2nc3c4c(nc(OCC5(C(F)F)COC5)nc4c2F)N2C[C@H]4CC[C@H](N4)[C@H]2CCO3)c1C(F)(F)F [Example 31, 5-((6aR,7S,10R)-13-((3-(difluoromethyl)oxetan-3-yl)methoxy)-1-fluoro-5,6,6a,7,8,9,10,11-octahydro-4-oxa-3,11a,12,14,15-pentaaza-7,10-methanocyclohepta[4,5]cyclo-octa[1,2,3-de]naphthalen-2-yl)-2-fluoro-3-methyl-4-(trifluoromethyl)aniline]	9.04	6.44
Cc1cc(N)cc(-c2nc3c4c(nc(OCC56COC(CF)(C5)C6)nc4c2F)N2C[C@H]4CC[C@H](N4)[C@H]2CCO3)c1C(F)(F)F [Example 49, 3-((6aR,7S,10R)-1-fluoro-13-((1-(fluoromethyl)-2-oxabicyclo[2.1.1]hexan-4-yl)methoxy)-5,6,6a,7,8,9,10,11-octahydro-4-oxa-3,11a,12,14,15-pentaaza-7,10-methanocyclohepta[4,5]cyclo-octa[1,2,3-de]naphthalen-2-yl)-5-methyl-4-(trifluoromethyl)aniline]	8.68	6.35
Nc1cc(Cl)c(C(F)(F)F)c(-c2nc3c4c(nc(OCC5(C(F)F)CCOC5)nc4c2F)N2C[C@H]4CC[C@H](N4)[C@H]2CCO3)c1 (stereo partly drawn) [Example 63, 3-chloro-5-((6aR,7S,10R)-13-((3-(difluoromethyl)tetrahydrofuran-3-yl)methoxy)-1-fluoro-5,6,6a,7,8,9,10,11-octahydro-4-oxa-3,11a,12,14,15-pentaaza-7,10-methanocyclohepta[4,5]cyclo-octa[1,2,3-de]naphthalen-2-yl)-4-(trifluoromethyl)aniline]	9.32	6.59
Nc1cc(Cl)c(C(F)(F)F)c(-c2nc3c4c(nc(OCC56COCC(F)(C5)C6)nc4c2F)N2C[C@H]4CC[C@H](N4)[C@H]2CCO3)c1 [Example 37, 3-chloro-5-((6aR,7S,10R)-1-fluoro-13-((5-fluoro-3-oxabicyclo[3.1.1]heptan-1-yl)methoxy)-5,6,6a,7,8,9,10,11-octahydro-4-oxa-3,11a,12,14,15-pentaaza-7,10-methanocyclohepta[4,5]cyclo-octa[1,2,3-de]naphthalen-2-yl)-4-(trifluoromethyl)aniline]	9.28	6.69
Nc1cc(Cl)c(C(F)(F)F)c(-c2nc3c4c(nc(OC[C@@]56CCCN5C[C@H](F)C6)nc4c2F)N2C[C@H]4CC[C@H](N4)C2CCO3)c1 (single isomer, unassigned) [Example 25]	8.36	7.17
N#CC1(COc2nc3c4c(nc(-c5cc(N)cc(Cl)c5C(F)(F)F)c(F)c4n2)OCC[C@@H]2[C@@H]4CC[C@H](CN32)N4)CCOCC1 [Example 64, 4-((((6aR,7S,10R)-2-(5-amino-3-chloro-2-(trifluoromethyl)phenyl)-1-fluoro-5,6,6a,7,8,9,10,11-octahydro-4-oxa-3,11a,12,14,15-pentaaza-7,10-methanocyclohepta[4,5]cyclo-octa[1,2,3-de]naphthalen-13-yl)oxy)methyl)tetrahydro-2H-pyran-4-carbonitrile]	8.96	6.95
